Measured values: the antibiotic and cytotoxicity screens of Wong et al. (2023)
The list shows a part of the results.

Tests used:
HSkMC = human skeletal muscle cells; assay: cytotoxicity call (relative viability < 0.9); settings: 10 µM
HepG2 = assay: cytotoxicity call (relative viability < 0.9); settings: 10 µM
S. aureus RN4220 = assay: growth inhibition call (relative growth <= 0.2); settings: 50 µM

Row | SMILES | cytotoxicity call (HSkMC) | cytotoxicity call (HepG2) | growth inhibition call (S. aureus RN4220)
1 | COc1cccc(C(=O)Nc2ccc3c(c2)C(=O)N(C)[C@H]2CC[C@@H](CC(=O)NCCCN4CCOCC4)O[C@H]2CO3)c1 | inactive | inactive | inactive
2 | COc1ccc(C[C@H](N)C(=O)N[C@H]2[C@@H](O)[C@H](n3cnc4c(N(C)C)ncnc43)O[C@@H]2CO)cc1 | active | active | active
3 | C[C@H](CO)N1C[C@H](C)[C@H](CN(C)S(=O)(=O)c2ccc(Cl)cc2)Oc2c(NC(=O)Nc3cccc4ccccc34)cccc2C1=O | inactive | inactive | inactive
4 | COc1ccc(S(=O)(=O)N(C)C[C@@H]2OCCCC[C@@H](C)Oc3ccc(NC(=O)Nc4ccccc4)cc3C(=O)N([C@H](C)CO)C[C@@H]2C)cc1 | inactive | inactive | inactive
5 | CCCN(C)C[C@@H]1OCCCC[C@@H](C)Oc2ccc(NS(=O)(=O)c3cn(C)cn3)cc2C(=O)N([C@H](C)CO)C[C@@H]1C | inactive | inactive | inactive
6 | Nc1ncn(C2OC(CO)C(O)C2O)c(=O)n1 (configuration not stated) | inactive | active | inactive
7 | CC(C)NC(=O)Nc1ccc2c(c1)CC(=O)N([C@@H](C)CO)C[C@@H](C)[C@@H](CN(C)C(=O)Nc1ccc3c(c1)OCO3)O2 | inactive | inactive | inactive
8 | Cc1onc(-c2ccccc2Cl)c1C(=O)NC1C(=O)N2C1SC(C)(C)C2C(=O)[O-].[Na+] (configuration not stated) | inactive | inactive | active
9 | C[C@H](CO)N1C[C@H](C)[C@H](CN(C)S(=O)(=O)c2ccccc2)OCCCC[C@H](C)Oc2ccc(NS(=O)(=O)c3ccc(Cl)cc3)cc2C1=O | inactive | inactive | inactive
10 | Cn1cnc(CCNC(=O)C[C@H]2CC[C@@H]3[C@H](COC[C@H](O)CN3C(=O)Nc3ccc(Cl)cc3)O2)c1 | inactive | active | inactive
11 | CN(C)C(=O)C[C@@H]1CC[C@H]2[C@@H](COC[C@@H](O)CN2S(=O)(=O)c2ccccc2)O1 | inactive | inactive | inactive
12 | CC(=O)N1Cc2cc(C(=O)NCc3cccc(F)c3)nc(-c3cccc(C4=CCCCC4)c3)c2[C@H]1CCO | active | inactive | inactive
13 | C[C@@H]1CN([C@@H](C)CO)C(=O)Cc2cc(NC(=O)NC3CCCCC3)ccc2O[C@@H]1CN(C)S(C)(=O)=O | inactive | inactive | inactive
14 | C[C@H](CO)N1C[C@H](C)[C@H](CN(C)Cc2ccc(Cl)c(Cl)c2)Oc2ccc(NC(=O)Nc3ccc(C(F)(F)F)cc3)cc2C1=O | active | active | inactive
15 | O=C(C[C@H]1C[C@@H]2c3cc(NS(=O)(=O)c4ccc(F)cc4)ccc3O[C@@H]2[C@H](CO)O1)NCc1ccccn1 | inactive | inactive | inactive
16 | C[C@H](CO)N1C[C@H](C)[C@H](CN(C)Cc2ccc(-c3ccccc3)cc2)Oc2c(NC(=O)C3CC3)cccc2C1=O | inactive | inactive | inactive
17 | O=C(C[C@H]1C=C[C@H](NC(=O)C2CCC2)[C@@H](CO)O1)NCCCN1CCOCC1 | inactive | inactive | inactive
18 | C[C@H]1CN([C@@H](C)CO)C(=O)c2cccc(NS(=O)(=O)c3ccc(Cl)cc3)c2O[C@H]1CN(C)Cc1ccc(-c2ccccc2)cc1 | inactive | inactive | inactive
19 | O=C(CN1CCOCC1)NCC[C@@H]1CC[C@@H](NC(=O)Cc2ccccn2)[C@H](CO)O1 | inactive | inactive | inactive
20 | C[C@@H]1CCCCO[C@H](CN(C)C(=O)Cc2ccccc2)[C@@H](C)CN([C@H](C)CO)C(=O)c2cc(NC(=O)Nc3cccc4ccccc34)ccc2O1 | inactive | inactive | inactive
21 | Cc1noc(C)c1NC(=O)N(C)C[C@@H]1Oc2ccc(NS(=O)(=O)c3cn(C)cn3)cc2C(=O)N([C@H](C)CO)C[C@@H]1C | inactive | inactive | inactive
22 | O=C(C[C@H]1C[C@@H]2c3cc(NC(=O)Cc4ccncc4)ccc3O[C@@H]2[C@@H](CO)O1)NCCN1CCCCC1 | inactive | inactive | inactive
23 | Nc1nc(=O)n([C@@H]2O[C@H](CO)[C@@H](O)[C@H]2O)cc1CO | inactive | inactive | inactive
24 | COC(=O)[C@H](Cc1ccccc1)N1CC2=C[C@@H]([C@@H](O)CCn3cc(CCC(=O)NO)nn3)n3c(=O)n(C)c(=O)n3[C@@H]2[C@@H](C2CC2)O1 | inactive | inactive | inactive
25 | C[C@@H]1CN([C@H](C)CO)C(=O)c2cc(C#Cc3ccc(F)cc3)cnc2O[C@@H]1CN(C)CC1CCOCC1 | inactive | inactive | inactive
26 | COC(=O)[C@H]1[C@H](CO)[C@H]2Cn3c(ccc(-c4ccccc4)c3=O)[C@H]2N1S(C)(=O)=O | inactive | inactive | inactive
27 | COc1ccc(S(=O)(=O)Nc2ccc3c(c2)CC(=O)N([C@@H](C)CO)C[C@H](C)[C@@H](CN(C)C)O3)cc1 | inactive | inactive | inactive

Row | SMILES | cytotoxicity call (HSkMC) | cytotoxicity call (HepG2) | growth inhibition call (S. aureus RN4220)
28 | C[C@H]1CN([C@@H](C)CO)C(=O)c2cccc(NC(=O)c3ccc(-c4nccs4)cc3)c2O[C@@H]1CN(C)C(=O)Nc1ccc(F)cc1 | inactive | inactive | inactive
29 | CO[C@H](C(=O)N(C)C[C@H]1OCc2ccccc2-c2c(n(C)c3ccccc23)C(=O)N([C@H](C)CO)C[C@@H]1C)c1ccccc1 | inactive | inactive | inactive
30 | C=CCOC(=O)[C@H]1[C@@H]2C(=O)O[C@@H](c3ccccc3)[C@@H](c3ccccc3)N2[C@@H](c2ccc(OCCOC(=O)[C@@H]3C[C@@H]4C(=O)N[C@@H](CC(C)C)C(=O)N4[C@@H]3c3cccc(OCCO)c3)cc2)[C@]12C(=O)Nc1ccccc12 | inactive | inactive | inactive
31 | C[C@@H]1CCCCO[C@H](CN(C)C(=O)NC2CCCCC2)[C@H](C)CN([C@@H](C)CO)C(=O)c2cc(NS(=O)(=O)c3cccs3)ccc2O1 | inactive | inactive | inactive
32 | C[C@@H]1CN([C@H](C)CO)C(=O)c2cc(NC(=O)CCC(F)(F)F)ccc2O[C@@H]1CN(C)Cc1ccc(C(F)(F)F)cc1 | inactive | inactive | inactive
33 | C[C@@H]1CN([C@H](C)CO)C(=O)c2cc(NC(=O)Nc3ccccc3)ccc2O[C@@H](C)CCCCO[C@@H]1CN(C)S(=O)(=O)c1cccs1 | inactive | inactive | inactive
34 | C[C@@H]1CCCCO[C@H](CN(C)S(=O)(=O)c2ccc(Cl)cc2)[C@@H](C)CN([C@H](C)CO)C(=O)c2cc(NC(=O)Nc3ccc(F)cc3)ccc2O1 | inactive | inactive | inactive
35 | CCCN(C)C[C@@H]1OCCCC[C@H](C)Oc2ccc(NS(C)(=O)=O)cc2C(=O)N([C@@H](C)CO)C[C@H]1C | inactive | inactive | inactive
36 | C[N+](C)(C)CCOC(N)=O.[Cl-] | inactive | inactive | inactive
37 | Cc1cccc(S(=O)(=O)N2C[C@@H](O)COC[C@@H]3O[C@@H](CC(=O)NCc4ccncn4)CC[C@H]32)c1 | inactive | inactive | inactive
38 | C[C@@H]1CN([C@H](C)CO)C(=O)c2cc(NC(=O)Nc3cccc4ccccc34)ccc2O[C@H]1CN(C)C(=O)Nc1cccc2ccccc12 | inactive | inactive | inactive
39 | Cc1ccc(S(=O)(=O)N(C)C[C@H]2OCCCC[C@H](C)Oc3ccc(NC(=O)c4ccccc4)cc3C(=O)N([C@@H](C)CO)C[C@@H]2C)cc1 | inactive | inactive | inactive
40 | Cc1cc(C(=O)Nc2ccc3c(c2)C(=O)N(C)[C@@H]2CC[C@H](CC(=O)NCC(F)(F)F)O[C@@H]2CO3)no1 | inactive | inactive | inactive
41 | COc1ccc(S(=O)(=O)N(C)C[C@@H]2OCCCC[C@H](C)Oc3ccc(NC(=O)Nc4cccc5ccccc45)cc3C(=O)N([C@H](C)CO)C[C@H]2C)cc1 | inactive | inactive | inactive
42 | CCCCN1CNC(=S)NC1 | inactive | active | inactive
43 | COC(=O)C(N)CS.Cl (configuration not stated) | inactive | inactive | inactive
44 | O=C(CCCCCC(=O)N/N=C/[C@H](O)[C@@H](O)[C@H](O[C@@H]1O[C@H](CO)[C@H](O)[C@H](O)[C@H]1O)[C@H](O)CO)NO | inactive | inactive | inactive
45 | COCC#Cc1cnc2c(c1)C(=O)N([C@H](C)CO)C[C@H](C)[C@@H](CN(C)S(=O)(=O)c1ccccc1)O2 | inactive | inactive | inactive
46 | C[C@H](CO)N1C[C@H](C)[C@H](CN(C)Cc2ccc3c(c2)OCO3)Oc2ccc(NS(=O)(=O)c3ccccc3)cc2CC1=O | inactive | inactive | inactive
47 | Cc1noc(C)c1NC(=O)Nc1ccc2c(c1)C(=O)N([C@H](C)CO)C[C@H](C)[C@H](CN(C)C(=O)Nc1ccccc1)OCCCC[C@H](C)O2 | inactive | inactive | inactive
48 | Nc1ccc(OCC(=O)N2CCOCC2)cc1 | inactive | inactive | inactive
49 | CN1C(=O)c2cc(NC(=O)c3ccc(C(F)(F)F)cc3)ccc2OC[C@@H]2O[C@H](CC(=O)NC3Cc4ccccc4C3)CC[C@@H]21 | inactive | inactive | inactive
50 | C[C@@H]1CN([C@@H](C)CO)C(=O)c2cc(NC(=O)CCN3CCOCC3)ccc2O[C@H]1CN(C)C(=O)Nc1ccccc1 | inactive | inactive | inactive
51 | Cn1cnc(S(=O)(=O)N[C@H]2CC[C@H](CC(=O)Nc3ccccc3)O[C@H]2CO)c1 | inactive | inactive | inactive
52 | COCC(=O)Nc1ccc2c(c1)OC[C@@H](C)N(Cc1ccccc1C(=O)O)C[C@@H](C)[C@H](OC)CN(C)C2=O | inactive | inactive | inactive
53 | C[C@@H]1CN([C@@H](C)CO)C(=O)Cc2cc(NC(=O)Nc3ccc(C(F)(F)F)cc3)ccc2O[C@@H]1CN(C)Cc1ccc(C(F)(F)F)cc1 | active | active | inactive
54 | COC(=O)c1c(-c2c(Cl)cccc2Cl)noc1-c1cnn(-c2cccc(Cl)c2)c1C(F)(F)F | inactive | inactive | inactive
